Laboratory results as given in publication PMC4336329 (PLoS ONE, 2015).
The campaign covered roughly 310,000 compounds. About 14,000 (4.5%) showed an effect of 50% or more. The effect is printed as a negative number. Some of the results follow.

The compounds below were run against human ether-à-go-go-related gene (hERG) potassium channel (human, UniProt Q12809) (assay: primary screen, population patch clamp on CHO cells stably expressing hERG).
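Also: peak tail current of the secondary pulse compared with the same well before compound.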

human ether-à-go-go-related gene (hERG) potassium channel, sequence (Q12809 whole entry, looked up): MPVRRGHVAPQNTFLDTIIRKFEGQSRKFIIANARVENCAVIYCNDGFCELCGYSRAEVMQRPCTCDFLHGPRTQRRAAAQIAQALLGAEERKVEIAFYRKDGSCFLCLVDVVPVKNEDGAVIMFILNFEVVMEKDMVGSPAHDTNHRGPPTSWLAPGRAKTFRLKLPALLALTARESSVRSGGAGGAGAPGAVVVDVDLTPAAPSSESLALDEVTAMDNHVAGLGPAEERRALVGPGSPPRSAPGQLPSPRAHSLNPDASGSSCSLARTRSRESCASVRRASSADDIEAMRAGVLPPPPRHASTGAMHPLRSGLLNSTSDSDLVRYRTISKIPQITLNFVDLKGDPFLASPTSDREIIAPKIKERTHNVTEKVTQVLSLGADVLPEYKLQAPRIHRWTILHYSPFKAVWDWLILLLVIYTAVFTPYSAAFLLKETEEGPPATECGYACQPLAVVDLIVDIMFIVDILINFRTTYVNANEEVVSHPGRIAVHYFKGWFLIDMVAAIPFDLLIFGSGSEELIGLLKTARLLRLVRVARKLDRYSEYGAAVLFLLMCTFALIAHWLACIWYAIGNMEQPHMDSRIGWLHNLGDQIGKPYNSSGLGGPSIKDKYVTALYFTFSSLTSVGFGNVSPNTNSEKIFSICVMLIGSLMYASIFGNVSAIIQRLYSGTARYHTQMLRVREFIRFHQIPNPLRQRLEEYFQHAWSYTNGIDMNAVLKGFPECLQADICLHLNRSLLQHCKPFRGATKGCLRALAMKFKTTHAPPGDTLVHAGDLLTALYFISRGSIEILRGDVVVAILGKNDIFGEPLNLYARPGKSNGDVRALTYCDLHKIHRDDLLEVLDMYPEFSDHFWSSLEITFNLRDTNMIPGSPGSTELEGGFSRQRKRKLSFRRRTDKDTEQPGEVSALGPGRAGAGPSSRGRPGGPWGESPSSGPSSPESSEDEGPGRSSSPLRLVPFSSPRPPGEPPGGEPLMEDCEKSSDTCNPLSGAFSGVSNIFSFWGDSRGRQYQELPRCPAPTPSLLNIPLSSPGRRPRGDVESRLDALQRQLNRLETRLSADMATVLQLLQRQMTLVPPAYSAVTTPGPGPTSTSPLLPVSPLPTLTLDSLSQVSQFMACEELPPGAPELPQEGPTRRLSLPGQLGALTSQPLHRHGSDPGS

Row | Compound | hERG current change (%, negative = inhibition) at 10uM [%]
1 | NS(=O)(=O)c1ccc(NC2=CC(=O)C(=O)c3ccccc32)cc1 | 10.6
2 | CS(=O)(=O)N1CCCC(C(=O)Nc2ccccc2C(F)(F)F)C1 (stereo not drawn) | 15
3 | CC(NC(=O)Nc1ccc(Cl)cc1)c1ccccc1 (stereo not drawn) | 20.2
4 | Cc1cc(C)nc(SC2CCCCC2NS(=O)(=O)c2ccccc2)n1 (stereo not drawn) | -18.5
5 | COc1ccc(C(O)c2nc3ccccc3n2C(C)C)cc1 (stereo not drawn) | -22.9
6 | COc1ccccc1NC(=O)NCCCCc1ccccc1 | -1.68
7 | COC(=O)c1c(N)sc2c1CCN(c1ncc(C(F)(F)F)cc1Cl)C2 | 0.549
8 | N#Cc1ccc(C(=O)N(Cc2ccco2)c2c(N)n(Cc3ccccc3)c(=O)[nH]c2=O)cc1 | 4.78
9 | CCc1ccc(CN2CCC(n3nccc3NC(=O)c3ccccc3Cl)CC2)cc1 | -84.4
10 | O=C(c1ccc(Cl)c(S(=O)(=O)N2CCOCC2)c1)N(c1ccccn1)C1CCCCC1 | -9.25
11 | NS(=O)(=O)c1ccc(NC(=O)Nc2ccc(S(N)(=O)=O)cc2)cc1 | 20.2
12 | O=C(Nc1ccc(-c2noc(-c3ccccc3F)n2)cc1)c1cccs1 | 9.29
13 | COc1ccc(OC)c2[nH]c(=O)c(CCNC(=S)NC(C)(C)C)cc12 | -46.6
14 | CCCCOC(=O)c1ccc(NC(=O)Nc2ccc(OC)c(OC)c2)cc1 | 13.5
15 | Cn1cc(C(=O)OCC(=O)NC2CCCC2)c2ccccc21 | 7.9
16 | O=C(NNC1=NCCC1)c1cccc(Br)c1 | 8.03
17 | Br.CCCCCCN1Cc2ccccc2C1 | -39.3
18 | Cc1ccc(Nc2nnc(SC(C)C(=O)NCC3CCCO3)s2)cc1C (stereo not drawn) | -12
19 | CCC1CCCN1Cn1cnc2c([nH]c3ccc(OC)cc32)c1=O (stereo not drawn) | -62.6

Row | Compound | hERG current change (%, negative = inhibition) at 10uM [%]
20 | O=c1cc(COc2ccc(Cl)c(Cl)c2)nc2sccn12 | 19.5
21 | CCC(C)NC(=O)C1=CCN(S(=O)(=O)c2ccc(C)cc2)CC1 (stereo not drawn) | 3.14
22 | CN(C(=O)COC(=O)CNS(=O)(=O)/C=C/c1ccccc1)C1CCS(=O)(=O)C1 (stereo not drawn) | 23.3
23 | COc1ccc(C2CC(=O)c3cnn(-c4nc(C)cc(C)n4)c3C2)cc1OC (stereo not drawn) | -4.84
24 | Cc1ccc(S(=O)(=O)/N=C(/Nc2ccc(F)cc2F)c2ccccc2)cc1 | 12.9
25 | Cc1ccc(-n2c(C)cc(C(=O)CSc3nnc4ccccn34)c2C)cc1 | -41.8
26 | O=C(CCC(NC(=O)OCc1ccccc1)C(=O)OCc1ccccc1)NCC(=O)OCc1ccccc1 (stereo not drawn) | -12.7
27 | CCc1cccc(CC)c1N(COC)C(=O)Cn1nnc2ccccc21 | -8.6
28 | Cc1ccc(Cn2nnnc2CN2CCC(O)(c3cccnc3)CC2)cc1.Cl | -13.9
29 | O=C(NCCC1=CCCCC1)c1ccc(=O)oc1 | -5.94
30 | COCCOC(=O)C1=C(C)NC(=O)NC1c1ccc(-c2cc(Cl)ccc2Cl)o1 (stereo not drawn) | 9.36
31 | O=C(O)C(=O)O.c1ccc2c(OCCCCN3CCOCC3)cccc2c1 | 10.7
32 | COc1ccccc1C(=O)NCCC(=O)NCCc1ccccc1 | 11.3
33 | CCOC(=O)C1CCN(C(=O)CN2C(=O)c3ccccc3Sc3ncccc32)CC1 | 6.06
34 | CCO[C@@H]1OC(C(=O)N2CCOCC2)=C[C@H](c2ccc(Br)cc2)[C@H]1CCCO | 8.59
35 | CCOC(=O)CC1C(=O)NCCN1C(=O)c1cccc(OC)c1 (stereo not drawn) | 8.2
36 | FC(F)(F)c1nnc2ccc(N3CCCC3)nn12 | -8.5
37 | COCCNC(=O)c1ccc2c(c1)C(=O)c1ccccc1-2 | 2.22
38 | Cc1cc(C)c(NC(=O)CSc2nnnn2-c2cccnc2)c(C)c1 | -3.3

Row | Compound | hERG current change (%, negative = inhibition) at 10uM [%]
39 | O=C(O)c1cccc(S(=O)(=O)NNc2ccccc2C(F)(F)F)c1 | 31.2
40 | Cc1ccc(-c2cc(C(=O)Nc3c(C)n(C)n(-c4ccccc4)c3=O)no2)cc1 | -25.3
41 | O=C(CSc1ncnc2c1nnn2Cc1ccccc1F)NCC1CCCO1 (stereo not drawn) | -2.7
42 | Cc1cc(C)c(NC(=O)/C(=C/c2ccco2)c2ccccc2)c(C)c1 | -26.7
43 | CC(=O)c1ccc(OCC(=O)Nc2ccc(N3CCCCC3)cc2)cc1 | 1.65
44 | Fc1ccc2nc(Nc3nc4c(F)cc(F)cc4s3)sc2c1 | 19.7
45 | Cc1ccc(C2=NN(C(=O)COc3ncnc4ccccc34)C(c3ccco3)C2)cc1 (stereo not drawn) | 18.2
46 | NS(=O)(=O)c1ccc(NC(=O)COc2cccc3ccccc23)cc1 | 18.3
47 | COc1cc(CN2CCN(Cc3ccc(C)cc3)C(CCO)C2)ccc1O (stereo not drawn) | -19.6
48 | CCc1ccc(/C=C2\Oc3ccc(C(=O)OC)cc3C2=O)cc1 | -1.19
49 | CCNc1nc(NCC)n2c(SCC(=O)Nc3cccc(Cl)c3)nnc2n1 | -24.4
50 | CCOC(=O)N1CCN(S(=O)(=O)c2ccc3c(c2)OCC(=O)N3)CC1 | 3.21
51 | N#C/C(=C\c1c(F)cccc1Cl)S(=O)(=O)c1ccccn1 | 3.15
52 | CC(C)(C)c1csc(SCC(=O)Nc2ccc(Cl)cn2)n1 | -8.38
53 | CC(N)(C(=O)O)c1cccc(OCc2cccc(Cl)c2)c1 (stereo not drawn) | 10.8
54 | COc1ccc(NC(=O)C2C(=O)N(CCO)C3(C)CC2c2ccccc2O3)cc1 (stereo not drawn) | -7.45
55 | CCOC(=O)Cc1csc(SCC(=O)Nc2cccc(C#N)c2)n1 | -7.85
56 | Cc1ccc(NC(=O)OCc2cncs2)cc1 | 2.29
57 | O=C(NCc1cccnc1)c1ccc(=O)oc1 | -8.85
